Measured values from PubChem BioAssay AID504339 (National Center for Advancing Translational Sciences (NCATS), 2011).
Out of some 390,000 compounds screened, about 17,000 (4.4%) were called active. Inconclusive results, whose numbers are uncertain, are shown with a selection of clear calls. The call rests on the fitted dose curve; in most records, active means well fitted inhibition curve with a large enough effect; inconclusive means small, poorly fitted or top-dose-only effect; inactive means no such curve, though single readings can be large or run the other way. Where the call is inconclusive, the potency comes from a doubtful curve fit.

molecular target: Lysine-specific demethylase 4A (Homo sapiens) (UniProt O75164); experiment: qHTS Assay for Inhibitors of JMJD2A-Tudor Domain; conditions: AlphaScreen JMJD2A-Tudor / H3K4me3 peptide binding; activity change, negative = inhibition: at 114 µM (top of the series); further: nearly all actives have a fitted effect of over 50% in size
Sequence of UniProt O75164 (O75164 whole entry, looked up, the tested form may be a part): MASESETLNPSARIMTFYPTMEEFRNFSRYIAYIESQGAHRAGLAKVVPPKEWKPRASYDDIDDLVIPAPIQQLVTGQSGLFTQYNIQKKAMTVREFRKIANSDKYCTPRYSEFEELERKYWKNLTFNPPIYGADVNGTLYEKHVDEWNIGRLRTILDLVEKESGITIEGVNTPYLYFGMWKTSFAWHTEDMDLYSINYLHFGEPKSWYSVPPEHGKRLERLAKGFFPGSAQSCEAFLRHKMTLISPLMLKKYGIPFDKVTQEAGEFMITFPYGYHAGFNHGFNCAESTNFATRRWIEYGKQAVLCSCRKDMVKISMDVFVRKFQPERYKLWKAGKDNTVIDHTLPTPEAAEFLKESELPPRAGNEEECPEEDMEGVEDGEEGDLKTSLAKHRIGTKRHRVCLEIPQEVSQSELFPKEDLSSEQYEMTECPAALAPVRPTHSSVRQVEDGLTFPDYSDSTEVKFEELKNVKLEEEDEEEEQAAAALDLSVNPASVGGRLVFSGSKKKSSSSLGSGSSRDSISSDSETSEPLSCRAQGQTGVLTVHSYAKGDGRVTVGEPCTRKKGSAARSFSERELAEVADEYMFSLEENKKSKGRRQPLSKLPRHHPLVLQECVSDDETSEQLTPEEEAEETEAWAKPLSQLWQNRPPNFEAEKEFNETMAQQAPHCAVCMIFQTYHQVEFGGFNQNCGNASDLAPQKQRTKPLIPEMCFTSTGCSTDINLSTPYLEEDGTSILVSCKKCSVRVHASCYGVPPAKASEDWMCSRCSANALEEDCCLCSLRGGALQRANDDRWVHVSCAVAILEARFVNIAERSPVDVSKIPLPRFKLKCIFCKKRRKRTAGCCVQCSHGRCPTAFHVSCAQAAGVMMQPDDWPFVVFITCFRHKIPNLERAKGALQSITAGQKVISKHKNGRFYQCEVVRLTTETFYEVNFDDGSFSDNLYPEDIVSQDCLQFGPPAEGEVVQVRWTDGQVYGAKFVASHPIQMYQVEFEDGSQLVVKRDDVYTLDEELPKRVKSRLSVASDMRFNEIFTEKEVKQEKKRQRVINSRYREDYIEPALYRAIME
On the % scale 0 is the no-effect control and ±100 the full control effect; potency means the concentration at half of the fitted maximal effect; tags describe the fitted curve by direction and shape.

| SMILES | Potency | activity change, negative = inhibition |
| --- | --- | --- |
| CCC(C)NCCOCCOc1cc(C)c(Cl)c(C)c1 (configuration not stated) | active: 3.98 µM | – |
| CCOc1ccc(Nc2nc(N)nc(CSC(=S)N3CCN(c4ccccc4)CC3)n2)cc1 | inconclusive: 25.1 µM [inhibitor, full curve, poor fit] | – |
| S=C1NNC2(NN1)C1CC3CC(C1)CC2C3 | inconclusive: 44.7 µM [inhibitor, single point] | – |
| O=C(CCl)Nc1c2c(nn1-c1ccccc1)CSC2 | active: 44.7 µM | – |
| COc1ccccc1/C=C(/C#N)C(=O)O | – | inactive: -3.52% |
| CN(C)S(=O)(=O)c1ccc(C(=O)NCc2ccc3[nH]c4c(c3c2)CCCC4)cc1 | inconclusive: 44.7 µM [inhibitor, partial curve] | – |
| O=C(NC(=S)Nc1cc(S(=O)(=O)N2CCOCC2)ccc1O)c1ccco1 | – | inactive: -23.4% |
| CCOC(=O)C(=O)N1CCC(C(=O)OCC)CC1 | – | inactive: -6.05% |
| CC(=O)Nc1cc2c(c(Cl)c1Cl)-c1ccccc1C2=O | inconclusive: 4.47 µM [inhibitor, full curve, poor fit] | – |
| COC(=O)/C=C\C(C#N)(C#N)N=Cc1ccc(OC)cc1 | – | inactive: -21.5% |
| CCOc1cc(C(=O)N(Cc2nc(-c3ccc(C)cc3)no2)C(C)C)cc(OCC)c1OCC | – | inactive: -6.06% |
| COc1ccc(-n2ncc(C(=O)N3CCN(Cc4ccccc4)CC3)c2C2CCN(C(=O)OC(C)(C)C)CC2)cc1 | – | inactive: -18.8% |
| COc1ccccc1CN1CC(C(=O)N(C)CCc2nc3ccc(F)cc3[nH]2)CCC1=O (configuration not stated) | – | inactive: -23.6% |
| Cc1ccc(C)c(N2CCN(C(=O)c3ccc(N4CCOCC4)c([N+](=O)[O-])c3)CC2)c1 | active: 56.2 µM | – |
| COc1ccc(CCNC(=O)CCCn2c(=O)c3ccccc3n(CC(=O)Nc3cccc(C)c3)c2=O)cc1OC | – | inactive: -18.8% |
| Brc1ccc(C2=Nn3c(nnc3-c3cccnc3)SC2)s1 | active: 50.1 µM | – |
| COc1ccc(NC(=S)N/N=C2\CC(C)(C)Oc3ccc(OC)cc32)cc1 | – | inactive: -20.2% |
| CCOc1ccc(NC(=O)C/C(C)=N/NC(=O)COc2ccc(Br)cc2C)cc1 | – | inactive: -9.36% |
| COc1cccc2c1Oc1ncccc1N(C(=O)CCC(=O)NCc1cccc(C)c1)C2 | inconclusive: 50.1 µM [inhibitor, partial curve] | – |
| CC(/C=N/n1c(-c2cc(C)[nH]n2)n[nH]c1=S)=C\c1ccccc1 | inconclusive: 39.8 µM [inhibitor, single point] | – |
| COc1ccc(C(=O)/C(C#N)=N/Nc2ccc([N+](=O)[O-])cc2)cc1 | active: 7.94 µM | – |
| Cc1cc(C)nc(NC2=NCC(=O)N2c2ccc3c(c2)OCCO3)n1 | inconclusive: 89.1 µM [inhibitor, single point] | – |
| CC(Nc1cc(N2CCCC2)ccc1[N+](=O)[O-])c1ccccc1 (configuration not stated) | inconclusive: 7.94 µM [inhibitor, full curve, poor fit] | – |
| CCCCN1CC(=O)N2[C@H](c3ccc(Cl)cc3)[C@@H]3C(=O)N(CC)C(=O)[C@@H]3[C@]2(C)C1=O | – | inactive: 7.14% |

| SMILES | Potency | activity change, negative = inhibition |
| --- | --- | --- |
| OCCOc1ccc(C2=NCCO2)cc1 | – | inactive: -1.46% |
| Cc1ccc(NC(=O)CN(C)S(=O)(=O)c2ccc3c(c2)n(C)c(=O)c(=O)n3C)c(C)c1 | inconclusive: 56.2 µM [inhibitor, partial curve, poor fit] | – |
| S=c1[nH]c(-c2ccccc2)cn1-c1ccccc1 | inconclusive: 25.1 µM [inhibitor, full curve] | – |
| Cc1c(NC(=O)CN2CCN(c3ccc(O)cc3)CC2)c(=O)n(-c2ccccc2)n1C | active: 28.2 µM | – |
| O=C1C(NS(=O)(=O)c2cccs2)=C(N2CCN(Cc3ccccc3)CC2)C(=O)c2ccccc21 | active: 14.1 µM | – |
| COc1ccc(Nc2c3c(nc4ccccc24)CCCC3)cc1OC | inconclusive: 28.2 µM [inhibitor, partial curve] | – |
| CCOC(=O)c1sc2nc(CC(=O)OC)nc(NCc3ccco3)c2c1C | inconclusive: 35.5 µM [inhibitor, full curve] | – |
| O=C(CSCc1ccc(Br)cc1)N=Nc1c(O)[nH]c2ccccc12 | inconclusive: 50.1 µM [inhibitor, partial curve] | – |
| Cc1ccc(NCC(=O)N/N=C/c2c[nH]c3ccccc23)cc1 | inconclusive: 12.6 µM [inhibitor, partial curve] | – |
| O=c1[nH]c2cc3c(cc2cc1C(c1nnnn1Cc1ccccc1)N1CCN2CCCC2C1)OCCO3 (configuration not stated) | – | inactive: -12.8% |
| O=C(NNC(=S)Nc1ccc(C(=O)O)c(O)c1)c1ccncc1 | inconclusive: 63.1 µM [inhibitor, partial curve] | – |
| O=C(N/C=C/c1ccco1)NCc1ccccc1 | active: 79.4 µM | – |
| CCN(CC)CCN(C(=O)c1ccc2ccccc2c1)c1nc2ccc(OC)cc2s1 | inconclusive: 11.2 µM [inhibitor, full curve] | – |
| Cn1nc(-c2ccccc2F)c2cc(C(=O)NCc3ccc(Cl)cc3)sc21 | – | inactive: -10.9% |
| O=C1NCCCC2c3c(cc(Br)c(O)c3Br)OC12N1CCOCC1 (configuration not stated) | inconclusive: 100 µM [inhibitor, single point] | – |
| COc1ccc(C(=O)/C=C/c2ccccc2F)c(OC(=O)c2ccc([N+](=O)[O-])cc2)c1 | inconclusive: 2.51 µM [inhibitor, full curve, poor fit] | – |
| O=C(Nc1ccccc1Cl)OCc1cncs1 | – | inactive: 7.56% |
| COc1ccc(NC(=O)C(=O)NCCc2sc(-c3ccc(Cl)cc3)nc2C)cc1 | – | inactive: 4.81% |
| CC1(C)CC(=O)C=C(c2cccc(Br)c2)C1 | inconclusive: 28.2 µM [inhibitor, full curve] | – |
| CC1CCc2c(sc(NC(=O)Cn3nnc(-c4ccc(C(F)(F)F)cc4)n3)c2C#N)C1 (configuration not stated) | inconclusive: 89.1 µM [inhibitor, partial curve] | – |
| O=C(N/N=C/c1cccc(O)c1)c1ccc2c(c1)OCCO2 | – | inactive: -11.1% |
| Cc1cccc(-n2c(SCC(N)=O)nc3c(c2=O)C2(CCCC2)Cc2ccccc2-3)c1 | inconclusive: 10 µM [inhibitor, full curve, poor fit] | – |
| CCN(CC)c1ccc(/C=N/OCC(=O)N2CCCc3ccccc32)cc1 | inconclusive: 35.5 µM [inhibitor, partial curve] | – |
